Results taken from the supplement of paper PMC11880418.
Structures can show the parent of a compound that is named as a salt. Some of the results follow. The data scatter; read single values as rough.

How the values were obtained:
Test in all cases: ALDHbr (CSC) cell proportion score relative to DMSO vehicle (ratio to DMSO); breast (SUM159) / gastric (MKN45) / pancreatic (PANC1) / colon cancer lines; ALDHbr cells have high ALDH activity and are rich in cancer stem cells (CSC); higher = more CSC (ALDHbr) cells remaining
Settings in all cases: 10 µM; 72 h
MKN45 = test system: MKN45
PANC1 = test system: PANC1
SUM159 = test system: SUM159
T84 = test system: T84
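Note: High-content imaging of ALDEFLUOR-stained cells with Hoechst-labelled nuclei in 384-well plates, triplicate wells, scored as Z-score against 0.1% DMSO vehicle, negative meaning fewer ALDHbr cells.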

| Compound | ALDHbr (MKN45) | ALDHbr (PANC1) | ALDHbr (SUM159) | ALDHbr (T84) |
| --- | --- | --- | --- | --- |
| C[C@@H](CN1CC(=O)NC(=O)C1)N1CC(=O)NC(=O)C1 [Dexrazoxane hydrochloride] | 1.41 | 0.949 | 1.36 | 0.793 |
| Clc1ccc2c(c1)C(N1CCNCC1)=Nc1ccccc1O2 [Amoxapine] | 1.22 | 0.77 | 0.607 | 0.75 |
| CN(CCOc1ccc(NS(C)(=O)=O)cc1)CCc1ccc(NS(C)(=O)=O)cc1 [Dofetilide] | 1.02 | 0.927 | 0.867 | 1.1 |
| O=C1CN(/N=C/c2ccc([N+](=O)[O-])o2)C(=O)N1 [Nitrofurantoin] | 0.861 | 0.825 | 0.873 | 0.749 |
| Cc1cnc(C(=O)NCCc2ccc(S(=O)(=O)NC(=O)NC3CCCCC3)cc2)cn1 [Glipizide] | 1.02 | 1.05 | 1.15 | 1.07 |
| Clc1ccc2nsnc2c1NC1=NCCN1 [Tizanidine hydrochloride] | 1.07 | 1 | 1.02 | 0.973 |
| CN(C)CCCSC(=N)N [Dimaprit dihydrochloride] | 0.994 | 0.923 | 0.733 | 0.814 |
| COc1ccnc(C[S+]([O-])c2nc3cc(OC(F)F)ccc3[nH]2)c1OC (stereo not given) [Pantoprazole sodium] | 0.958 | 0.827 | 1.06 | 0.958 |
| CC(COc1ccccc1)NC(C)C(O)c1ccc(O)cc1 (stereo not given) [Isoxsuprine hydrochloride] | 1.26 | 0.761 | 1.86 | 1.09 |
| CN1CCC(=C2c3ccccc3CCc3cccnc32)CC1 [Azatadine maleate] | 1.44 | 1.04 | 0.781 | 0.93 |
